From the supplement of paper PMC8748497
This is one part of the list.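 The calls were made as follows: active = fold change of at least 2 over DMSO control; inactive = below 2-fold.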 Single values are uncertain, as repeats are few or missing.

These molecules were tested on HEK293 ARE/NRF2-luciferase reporter (assay: ARE/NRF2 luciferase reporter activity, fold change over DMSO control; higher = stronger NRF2/ARE reporter activation). Settings: 10 µM; 24 h.

ARE/NRF2 luciferase reporter activity, active:
O=C(Nc1ccccc1)Nc1ccccc1 3.75
O=c1cc(-c2ccccc2)oc2ccccc12 2.34
CC(C)c1c(O)ccc2c1CC[C@H]1C(C)(C)CCC[C@]21C 2.63
COc1ccc(C(=O)/C=C/c2ccccc2)cc1 26.1

ARE/NRF2 luciferase reporter activity, inactive:
NC(=O)N1c2ccccc2C=Cc2ccccc21 0.776
COC(=O)[C@H]1[C@H]2C[C@H]3c4[nH]c5ccccc5c4CCN3C[C@@H]2CC[C@@H]1O 0.909
[O-][n+]1cccc(CO)c1 0.966
Cc1nc2ccccn2c(=O)c1CCN1CCC(C(=O)c2ccc(F)cc2)CC1 1.13
CC(=O)OCC(CCn1cnc2cnc(N)nc21)COC(C)=O 0.984
CC(C)(C)CC(C)(C)c1ccc(O)c(Cc2ccc(Cl)cc2Cl)c1 1.64
CC(C)(C)NCC(O)COc1cccc2c1CCC(=O)N2 (stereo not given) 1.02
CC1(C)CC[C@]2(C)CC[C@]3(C)C(=CC[C@@H]4[C@@]5(C)CC[C@H](OC(=O)c6ccccc6)C(C)(C)[C@@H]5CC[C@]43C)[C@@H]2C1 [beta-AMYRIN BENZOATE] 0.941
O=C(O[C@@H]1Cc2c(O)cc(O)cc2O[C@@H]1c1ccc(O)c(O)c1)c1cc(O)c(O)c(O)c1 0.865
C[N+]1(C)[C@@H]2C[C@@H](OC(=O)C(O)(c3cccs3)c3cccs3)C[C@H]1[C@@H]1O[C@@H]12 1.17
CN(C)CCC(c1ccc(Br)cc1)c1ccccn1 (stereo not given) 0.826
NNC(=O)c1ccncc1 0.908
CC(C)c1ccc2oc3nc(N)c(C(=O)O)cc3c(=O)c2c1 0.726
CCN(CC)CCOC(=O)C(c1ccccc1)c1ccccc1 0.935
N[C@@H](CC(=O)N1CCn2c(nnc2C(F)(F)F)C1)Cc1cc(F)c(F)cc1F 1.7
CCCCC(CC)COC(=O)CC(C(=O)OCC(CC)CCCC)S(=O)(=O)O (stereo not given) 0.961
O=C(O)COCCN1CCN(C(c2ccccc2)c2ccc(Cl)cc2)CC1 (stereo not given) 1.09
COC(=O)c1c(C)cc(OC(=O)c2c(C)cc(O)c(CO)c2O)c(C)c1O 1.61
CCCOc1ccc2[nH]c(NC(=O)OC)nc2c1 1.44
Nc1nc(N)c2nc(-c3ccccc3)c(N)nc2n1 0.91
CCc1nc(N)nc(N)c1-c1ccc(Cl)cc1 0.393
COc1ccc(CN(CCN(C)C)c2ccccn2)cc1 0.803
CC(C)CCCC(C)C1CCC2C3CCC4CCCCC4(C)C3CCC12C (stereo not given) 1.01
CN1[C@@H](CC(=O)c2ccccc2)CCC[C@H]1C[C@H](O)c1ccccc1 0.997
CC(=O)OC(C)C[N+](C)(C)C (stereo not given) 1.07
OCCN1C[C@H](O)[C@@H](O)[C@H](O)[C@H]1CO 1.01
CC[C@H](C)[C@H](N)C1=N[C@H](C(=O)N[C@@H](CC(C)C)C(=O)N[C@H](CCC(=O)O)C(=O)N[C@H](C(=O)N[C@H]2CCCCNC(=O)[C@H](CC(N)=O)NC(=O)[C@@H](CC(=O)O)NC(=O)[C@H](Cc3cnc[nH]3)NC(=O)[C@@H](Cc3ccccc3)NC(=O)[C@H]([C@@H](C)CC)NC(=O)[C@@H](CCCN)NC2=O)[C@@H](C)CC)CS1 0.921
CN1C(=O)CC(C)(c2ccccc2)C1=O (stereo not given) 0.894
C#C[C@]1(O)CC[C@H]2[C@@H]3CCC4=CC(=O)CC[C@@H]4[C@H]3CC[C@@]21C 0.979
COc1ccc(CN(CCN(C)C)c2ncccn2)cc1 0.913
CC(O)C(=O)O.N (stereo not given) 0.872
CN(C)[C@@H]1C(=O)C(C(N)=O)=C(O)[C@@]2(O)C(=O)C3=C(O)c4c(O)ccc(Cl)c4[C@@H](O)[C@H]3C[C@@H]12 0.66
COc1ccc([C@@H](C)C(=O)c2ccc(O)cc2O)cc1 1.61
COc1cc(C(C)=O)ccc1O 0.903
CO/N=C(\C(=O)N[C@@H]1C(=O)N2C(C(=O)O)=C(C[N+]3(C)CCCC3)CS[C@H]12)c1csc(N)n1 0.862
CC(=O)Oc1ccc2c(C)cc(=O)oc2c1 0.954
